According to the supplement of paper PMC11417369:
± gives the standard deviation of the averaged measurements. The list shows a part of the results.

What follows are sequences tested on PfAP2-G AP2 domain (GST-tagged) (assay: gcPBM binding intensity (ln(normalized median fluorescence intensity)); higher = stronger DNA binding).
Outline: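 Each value is the highest Masliner-normalised natural-log median intensity across replicate spots of either orientation of a probe. The probes were primer-extended double-stranded 36-bp intergenic genomic sequences on an Agilent 4 × 180k array, alongside negative controls, exposed for 1 h to GST-tagged P. falciparum DNA-binding domains expressed in E. coli. Bound protein was picked up with Alexa488 anti-GST antibody and scanned at 488 nm.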

Sequence	gcPBM binding intensity (ln)
TATAATTTAGCTTGTGCATGCAGGTGCTACATTTGT [TGCATGCA_site217]	10 ± 0.24
ATCATATATGTTATTACACACGTTATGTTATTATAA [CACACA_site2712]	9.965 ± 0.035
TATTATATCTTTATTATTCATCTAAAATTTGTATTT [TGCATGCA_negctrl_site233]	9.7 ± 0.12
GTTTCAAAATTAAACACACACAAAAAAAAAAAAAAA [CACACA_site2680]	9.91 ± 0.4
TATTTAAAAGCATATACACACAACTGGAATGAAAAG [CACACA_site6128]	10.3 ± 0.23
ACATTATATCTAAGTACACACATTAATTTTTTTTTT [CACACA_site7850]	11.4 ± 0.85
CTATAACCTCTGTTCACACATATATCATAATTTACA [CACACA_site5446]	10.2 ± 0.16
TTTATTTTGATTTAATGTACAAATAGTAAAACAAAA [XGTACX_site4789]	10.9 ± 0.49
TTTTCAAAAATATACACACACATAAATATAGGTATA [CACACA_site6506]	9.835 ± 0.035
ATAAAACAAAAATATAAACACACATACATTGGTTTT [CACACA_site8809]	9.83 ± 0.014
TTGATTTACTATAGATGTACGTAAAATATAAATAAA [XGTACX_site8256]	11.5 ± 0.96
AATTTAAAAGAAAAAGAAAAATAATAAACAGAAGCA [XGTACX_negctrl_site503]	9.805 ± 0.049
TGGGAAAATAATATTTATTTTATATATAAATATATA [CACACA_negctrl_site121]	9.47 ± 0.12
AATAAAACCCCGAAATCACACATTAAATGAAAAATA [CACACA_site4732]	10 ± 0.057
AAAGCACCCATGCACACACACAAAGGAAAAGAAAAA [CACACA_site6249]	10.3 ± 0.47
ATAAATGATAAAATTGCATGTGAATGTGAAAATATT [TGCATGCA_site251]	10 ± 0.11
AAAATACTAGATAGGGGAAAAAAAAAAAAAAAAAAA [CACACA_negctrl_site1732]	9.78 ± 0.42
TATTGTAATATTAGCACACATTACCTCACTACAAAT [CACACA_site5419]	10.3 ± 0.18
AACATGAAAATATATGCATTTGTATATATATATATA [TGCATGCA_negctrl_site16]	9.95 ± 0.45
TTGTTTTTCTTTGAATGTACTTAATGATTTCCAATT [XGTACX_site2499]	11.1 ± 0.64
AATGGAAAAATAGGCACACACACATATATACATATA [CACACA_site1298]	9.95 ± 0.11
TCCATATATTTTAAAAGTACACATAAAAATTATTTA [XGTACX_site8127]	11.4 ± 0.99

Sequence	gcPBM binding intensity (ln)
ATATAAATAAAATATACACACATACTGTTCATTTAA [CACACA_site7880]	9.86 ± 0.11
TTTTTTTTTTATTTTGCACACTTCTAATTTAGTTCT [CACACA_site5828]	10.2 ± 0.26
TAAAATAAAACAAACACACACACACGGACACAAAAA [CACACA_site7754]	11.4 ± 0.68
AAAAAAAAAAAAGATTGTACAGAATACTTTTAAAAT [XGTACX_site3576]	10.7 ± 0.4
AAGTTAATGAAAAAATGTACCCAGAGTATTTTAAAA [XGTACX_site2997]	11.2 ± 0.71
ATAAAATATAGATGCACACACATATAGATTTCATAC [CACACA_site7636]	9.92 ± 0.085
TGTATATTTTTTATTACACACTTTTTACTTTTTAGA [CACACA_site3069]	9.975 ± 0.035
TTTTTTAATTGTGATACGTATATTATTTAATGATAA [GTGCAC_negctrl_site704]	10.5 ± 0.44
ATCAAACCATAAAAGAGTACAAAAGGATGATATTTT [XGTACX_site8883]	11.3 ± 0.8
TATTTTAAAGAGAAAACATGCATTATATAGAACATT [TGCATGCA_site328]	9.8 ± 0.071
GATATAATTATATTATGGTGTTTTTGATAGATATTT [GTGCAC_negctrl_site313]	9.785 ± 0.021
AGTATATACACGTGCGTGCACAGATATTCTTTTTTT [GTGCAC_site9398]	10.4 ± 0.16
ATGTTTTGCATATATTATATATTTATTTATTTTTTT [CACACA_negctrl_site729]	9.845 ± 0.049
AGTGGACTTTTTTTTTTTTTTTTTTTTTTTTTATTA [CACACA_negctrl_site547]	11.3 ± 0.77
AGTAGTCTGGAGAAGAGTACATAGTATCTGGTAACC [XGTACX_site2043]	11.3 ± 0.81
ATGGAAATATATACATGTACATAAATATATATATAT [XGTACX_site8391]	11.2 ± 0.61
TATTTATTGTGATACTTATATTATTTTATGATTAAA [CACACA_negctrl_site901]	10.2 ± 0.19
AGAGAGATGACAAAAAGATGAATAACGTTAAGGGAT [XGTACX_negctrl_site120]	10.11 ± 0.049
ATATACTATGATAATACATGCGATAATACATTTTTA [TGCATGCA_site387]	10 ± 0.2
AAGTATGTCGACTGTTGTACTTTTATCATTTATTAT [XGTACX_site1129]	11.3 ± 0.71
GTATGGCGTATCATATGTACTAAAAAAAAATAAAAA [XGTACX_site5101]	11.3 ± 0.82
TATTTATCATCATATTGTACATTATATATATAAAAT [XGTACX_site6675]	10.7 ± 0.39
